The conditions of the data set: 101 kPa.

The record followed here is the CheMixHub viscosity set.

Several values for one entry are separate records, joined by “and”; a condition that tells them apart may be missing. Equal entries are not always repeated. ± gives the uncertainty stated by the source. The source gives many values for each of these; only a part stands here.

On to `Cc1ccccc1`, for which the viscosity is 0.578 ± 0.031 mPa·s (293.15 K); 0.5512 ± 0.015 mPa·s and 0.561 ± 0.007 mPa·s and 0.549 ± 0.006 mPa·s (298.15 K); 0.488 ± 0.005 mPa·s and 0.503 ± 0.007 mPa·s (308.15 K); 0.442 ± 0.005 mPa·s (318.15 K).

In general, viscosity refers to the resistance of a fluid to flow.
